According to the supplement of paper PMC10126150:
Sequences with one replicate were seen in a single cluster, so their values are uncertain.

tested on: ATP; assay: switch fluorescence ratio, 500 uM ATP over buffer (Cy3 cluster intensity, sum of 5 cycles each) (fold (ratio)); higher = stronger signal-on switching upon ATP binding; sequences stand for … in TCGTCGGCAGCGTCAGATGTGTATAAGAGACAGTTTTTTTTTTTTTTTTTTTTTTTTT…TC; conditions: aptamer strand: ATP DNA aptamer (quencher-CACCTGGGGGAGTATTGCGGAGGAAGG + anchor), 100 nM annealed; ATP concentration: 500 uM; one replicate
In short: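 For every switch-domain sequence, the fluorescence ratio is the mean of per-cluster values, each being summed target-cycle Cy3 intensity over summed buffer-cycle Cy3 intensity. Clusters outside 100-1000 RFU were excluded. On a modified Illumina MiSeq flow-cell, the Cy3-labelled switching-strand clusters were annealed to 100 nM quencher-labelled ATP aptamer, imaged in selection buffer and then after 15 min with 500 uM ATP at 22 °C. Five such cycles were run, with NaOH stripping and re-annealing between them.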
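Note: ATP exposure 15 min at 22 °C before imaging.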

Row | Sequence | switch fluorescence ratio
1 | GCCTTACGAG | 1.63
2 | TCTTAGCTTT | 0.952
3 | TTCGTCGCGC | 1.06
4 | GGAGGACGAC | 1.01
5 | TTGGCAAACC | 1.42
6 | CGGAACGTTA | 1.04
7 | CCCGTTAGTG | 0.985
8 | AACTAGCT | 0.997
9 | CGCCCACTC | 1.34
10 | ATCGTGTAGT | 0.994
11 | GGGTAGAGGC | 1.04
12 | TATGTAAAGC | 1.04
13 | GGTGATAAGT | 0.951
14 | CATGTCGCGT | 1.04
15 | CTCCTAATAG | 4.99
16 | GGCGAAGTTT | 1.01
17 | ATACATGGGA | 1
18 | AATTCCTTAT | 1.14
19 | CGGTGAAGAC | 1.07
20 | CTACTGTAAA | 1.14
21 | ACCGTAACAT | 1.1
22 | CGGGCCAAGT | 1.01
23 | CTTAGAACAG | 0.989
24 | GCCTTGCAGC | 0.945
25 | GACTCCCGTC | 1.06
26 | ACGTGTGTGA | 1.06

Row | Sequence | switch fluorescence ratio
27 | TGGGAGATAG | 0.983
28 | GGTTCCGTTT | 1.02
29 | ATATTATGCG | 0.935
30 | TGAGCTGGAT | 1.04
31 | CTTAAATAGA | 0.958
32 | TCTTGGAAAT | 0.977
33 | AAGTCTTAC | 1.23
34 | GAACGCGAGG | 2
35 | CCAATTACTT | 0.998
36 | TCACATGGAA | 1.04
37 | TTGGGTAAAC | 1.07
38 | GGCCAGAGAT | 0.975
39 | TAACTTAAAA | 1.17
40 | TATGCCAAGG | 1.04
41 | AGTTGAAGG | 1.04
42 | TGCTGGATCG | 0.984
43 | CGATTTATGC | 0.999
44 | ATCCTTCCCG | 2.03
45 | TCAGTAGTCG | 0.989
46 | GGATAGACCT | 1.35
47 | CCACGTTCTT | 1.03
48 | GGTGTGCACA | 1.06
49 | ATAGTCTGCG | 1.02
50 | AATGTGATTG | 1.01
51 | ACGAGACATC | 1.07
52 | GTAGTAAAAT | 1.04

Row | Sequence | switch fluorescence ratio
53 | CATCGATTCG | 1
54 | TATCGTTGGG | 0.966
55 | CCGATGGTAT | 1.98
56 | GAATAGAGAG | 1.02
57 | AACAGGTGTC | 1.5
58 | GAGAGTGCGT | 1.01
59 | CAGCCGCCCG | 1.22
60 | TGCAACTACA | 1.12
61 | AAAAAGAACT | 0.96
62 | GTAATATATT | 0.965
63 | CGGCGTTAGA | 1.01
64 | GAGACATGGG | 0.981
65 | GGCTTGGAGG | 1.03
66 | TCACTCAAAT | 1.03
67 | CCATTGTGGC | 1.01
68 | TTTAATTCG | 1.03
69 | AGCGCGTGCG | 0.954
70 | ATACGACGCA | 2.02
71 | TATAGATCGG | 1.03
72 | CGGGGCTCGC | 1.02
73 | ACTATACTGA | 1.31
74 | TTTTGAATGT | 0.969
75 | ACGGGCTGCC | 1.03
76 | CGTACGTAG | 1.03
77 | TAATTTACTT | 1.05
78 | CTTCTTAAGC | 1.08

Row | Sequence | switch fluorescence ratio
79 | TAGTAGGTAA | 1.01
80 | CCAAGGTTGA | 1.03
81 | TGTAGTAGGA | 0.981
82 | CTCGGAACTG | 1.02
83 | ATGGTTATGA | 1.01
84 | CGCTGTGAAC | 1.09
85 | GCATATTCAG | 0.967
86 | TGAGATCCG | 1.02
87 | TTTAGGACT | 1.01
88 | AGCTGGACAG | 1.02
89 | TAAACTGTCT | 1.03
90 | TTTAGTTTC | 0.934
91 | TTAGTAACAT | 0.984
92 | TTGGAGAGCG | 0.987
93 | CGCTTGAGTG | 0.979
94 | GCGGGGCAGT | 1.02
95 | TAGAATGGGT | 0.994
96 | AGCCTAAAAG | 1.06
97 | TTAGTTCCCG | 1.02
98 | ATTGTCAGGC | 1.01
99 | ATGGGACCGA | 1.01
100 | GAATGTATGC | 1.03
101 | GCCGGGCACA | 0.969
102 | TCAGAGAAT | 0.979
103 | TTCCTCGGTC | 1.49
104 | AGACAATGTC | 1.02

Row | Sequence | switch fluorescence ratio
105 | CAAGAAGCCA | 1.01
106 | GCCATTAGTG | 0.993
107 | TAATGAAAAT | 1.02
108 | TCCACTACCT | 1.34
109 | CAACGAGCG | 1.01
110 | GATGCCCGGG | 1.03
111 | GTTTCGAACT | 1.02
112 | CTGTGTCATC | 1.01
113 | TCCTAGGCAC | 2.32
114 | GGTTTGACT | 0.94
115 | CCTTTAGCTC | 2.2
116 | GGGAAAGTCC | 1.02
117 | TACCCTCACG | 1.42
118 | AGCCAGATGG | 0.998
119 | CTAGAATTCG | 0.993
120 | ACTGGGCGGC | 0.962
121 | TGATTCGCGG | 0.993
122 | GGCCCCGCCT | 0.993
123 | ACGAATTCCG | 1.01
124 | AACCCAAAAA | 0.948
125 | TGTCAGGAGT | 1.02
126 | CACGCGCTTT | 1.01
127 | TGTCACAACT | 1.05
128 | ACACGGGTAC | 1.28
129 | CCTGTTAGA | 1.01
130 | TCATATTAAT | 1.29

Row | Sequence | switch fluorescence ratio
131 | TGGGATGATT | 1.01
132 | CTATTGATTC | 0.995
133 | AATTGTTGGA | 0.993
134 | CCTTGAGAAG | 1.01
135 | TCCGTTCTAT | 1.16
136 | GCCAAGTTCT | 0.95
137 | AATCGCAGGG | 0.995
138 | ACCGAAGGCG | 1.01
139 | TAACGGGGTG | 1.03
140 | TCGGTGGTTT | 0.996
141 | CGGCTTATCA | 0.986
142 | CCTGGATGTG | 0.974
143 | TTCAGTTAGG | 0.942
144 | GCTGATTGAT | 0.976
145 | TCGGCTCGGT | 1
146 | TTTGCCGCG | 1.03
147 | TTATGGTAGT | 0.993
148 | TTCTCAATTT | 1.12
149 | TCGTCCCGGT | 1.01
150 | TTCTTACGGA | 0.999
151 | GGTGGGTCAG | 1.02
152 | ATACCAAACG | 1.32
153 | TTTACCCATG | 1.04
154 | TGCTTCTACG | 1.05
155 | ATCAGACAGC | 1
156 | TTTACGAGAG | 1.01

Row | Sequence | switch fluorescence ratio
157 | ATGGTGTCA | 1.03
158 | TGAATTGACA | 1.03
159 | TGTTGTAGG | 1.02
160 | TGCACGGAGT | 0.972
161 | GTGGGTCGT | 1.04
162 | TGACAAGTA | 1.13
163 | ATTGAGTGT | 0.975
164 | AGAATTTTGG | 0.969
165 | TCGAGTTTAC | 0.984
166 | CATGTTTGAC | 1.02
167 | TTCGTAAATT | 1.02
168 | TATCGGGCGC | 0.991
169 | ATTCCCAGTT | 0.991
170 | GATAAATGAG | 0.973
171 | GGACCAGTTA | 1.03
172 | ATCTTTCTCC | 1.07
173 | GGAGAGAAAA | 1.04
174 | ATATTATTCG | 0.972
175 | CGGATAAGAC | 1.15
176 | TAGGAGAGGT | 1.12
177 | AAAGCGTTG | 1.04
178 | ACTGGATAGA | 1.06
179 | TTACAACTAA | 1.05
180 | AACGTATGAG | 0.982
181 | TCATAATAGT | 1.02
182 | TTAGGACAT | 1.03

Row | Sequence | switch fluorescence ratio
183 | CATGAAGCGC | 1.04
184 | CGGTTACGTG | 0.992
185 | GGCCTCCGTC | 1.83
186 | TCGACTGGTG | 1.12
187 | AGGGGTGGCT | 1.03
188 | CGCTGTGACA | 0.975
189 | GTGCGGGGCC | 0.995
190 | CTAATACTTC | 1.24
191 | TGTAGTGGCG | 1.1
192 | TACGGAGAGT | 1.01
193 | GACTGAAGCG | 1.02
194 | GGGCACATTG | 1.01
195 | CGCACAAACA | 1.2
196 | AGTCGGCCT | 0.984
197 | CCCGAGCTGT | 1.6
198 | TAATTCGGGC | 1
199 | TACTTTGCCC | 1.11
200 | AAAGGTGACG | 1.06
201 | TGCTGTTGAT | 0.965
